The campaign covered roughly 310,000 compounds. About 14,000 (4.5%) showed an effect of 50% or more. The effect is printed as a negative number. This is one part of the list.
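Also: peak tail current of the secondary pulse compared with the same well before compound.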

Chain of human ether-à-go-go-related gene (hERG) potassium channel (Q12809 whole entry, looked up): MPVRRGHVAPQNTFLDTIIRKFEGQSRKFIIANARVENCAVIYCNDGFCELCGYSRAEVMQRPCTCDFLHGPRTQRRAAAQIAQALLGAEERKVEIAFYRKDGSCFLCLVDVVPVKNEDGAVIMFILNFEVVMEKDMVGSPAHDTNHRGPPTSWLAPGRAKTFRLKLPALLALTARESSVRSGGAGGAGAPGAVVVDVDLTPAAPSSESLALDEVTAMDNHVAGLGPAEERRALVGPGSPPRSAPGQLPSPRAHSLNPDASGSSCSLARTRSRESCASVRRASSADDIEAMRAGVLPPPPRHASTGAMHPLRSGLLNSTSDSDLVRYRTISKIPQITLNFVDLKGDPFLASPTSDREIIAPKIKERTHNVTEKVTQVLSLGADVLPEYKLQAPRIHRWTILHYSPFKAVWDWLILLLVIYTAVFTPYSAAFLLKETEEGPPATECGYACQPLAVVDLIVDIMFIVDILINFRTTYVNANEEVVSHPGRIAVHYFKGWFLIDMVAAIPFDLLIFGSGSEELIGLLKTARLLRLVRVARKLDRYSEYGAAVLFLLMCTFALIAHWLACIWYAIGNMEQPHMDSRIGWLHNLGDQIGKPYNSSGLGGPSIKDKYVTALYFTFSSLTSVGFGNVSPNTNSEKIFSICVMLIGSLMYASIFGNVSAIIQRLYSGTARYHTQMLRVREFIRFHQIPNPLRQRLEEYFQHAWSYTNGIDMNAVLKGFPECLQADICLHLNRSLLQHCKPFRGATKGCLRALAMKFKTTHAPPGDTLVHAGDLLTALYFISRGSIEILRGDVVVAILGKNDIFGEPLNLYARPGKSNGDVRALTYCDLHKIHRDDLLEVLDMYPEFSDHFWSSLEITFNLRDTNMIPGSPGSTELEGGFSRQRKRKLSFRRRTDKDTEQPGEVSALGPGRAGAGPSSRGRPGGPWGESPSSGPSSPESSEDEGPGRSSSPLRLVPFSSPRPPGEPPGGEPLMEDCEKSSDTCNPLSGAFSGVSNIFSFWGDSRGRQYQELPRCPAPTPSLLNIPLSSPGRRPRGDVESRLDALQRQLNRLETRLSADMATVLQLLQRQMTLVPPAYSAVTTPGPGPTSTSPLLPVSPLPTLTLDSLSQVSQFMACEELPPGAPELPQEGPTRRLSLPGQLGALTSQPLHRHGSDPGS

The assay concerns the target human ether-à-go-go-related gene (hERG) potassium channel (human, UniProt Q12809). Put plainly: primary screen, population patch clamp on CHO cells stably expressing hERG.
As for `O=C(Cc1ccc(S(=O)(=O)N2CCCCC2)s1)Nc1ccc(F)cc1F`, the “hERG current change (%, negative = inhibition) at 10uM” value is -3.7%.

For the molecule `CN(C)CCNc1c2c(nc3ccccc13)CCC2`, the “hERG current change (%, negative = inhibition) at 10uM” value is recorded as -0.291%.

Consider `O=c1c(C(c2ccc(Cl)cc2)c2c(O)nc3n(c2=O)CCCS3)c(O)nc2n1CCCS2`, for which the “hERG current change (%, negative = inhibition) at 10uM” value came out at 21.3%.

On to `CCCCNC(=O)N1CCc2ccccc2C1`, for which the “hERG current change (%, negative = inhibition) at 10uM” value turned out to be 11.5%.

For `N#CC1=C(S)N=C(N)C(c2nc(-c3ccccc3)cs2)C12CCCCC2` (centres unmarked), the “hERG current change (%, negative = inhibition) at 10uM” value amounted to 20.4%.

`O=c1oc2ccccc2cc1-c1csc(NN=C2CCCC2)n1`: the “hERG current change (%, negative = inhibition) at 10uM” value is on record as 8.91%.

In the case of `CCOC(=O)CCC(=O)OCC(=O)NC(C)C1CC2CCC1C2` (centres unmarked), the “hERG current change (%, negative = inhibition) at 10uM” value was found to be 19.3%.

With `CC(=O)NCCc1nc2cc(NS(=O)(=O)c3ccc(Cl)cc3)ccc2n1C`, the “hERG current change (%, negative = inhibition) at 10uM” value is 10.4%.

Consider `CCCN1CN(CCc2ccccc2)CNC1=S`, for which the “hERG current change (%, negative = inhibition) at 10uM” value worked out at 2.91%.

In the case of `N#CC1=C(SCC(=O)c2ccc(Cl)cc2)NC2=C(C(=O)CCC2)C1c1ccco1` (centres unmarked), the “hERG current change (%, negative = inhibition) at 10uM” value is given as -13.2%.

As for `CCOC(=O)C1=C(C)N(C)C(=O)NC1c1cccc2ccccc12` (centres unmarked), the “hERG current change (%, negative = inhibition) at 10uM” value is -9.17%.

For the molecule `Cc1ccc(Cl)cc1N1CCN(Cc2nnnn2C2CCCCC2)CC1`, the “hERG current change (%, negative = inhibition) at 10uM” value was determined as 7.78%.

`COc1ccc(/C=C(\C#N)C(=O)Nc2cc(S(=O)(=O)N3CCOCC3)ccc2N2CCCC2)cc1`: the “hERG current change (%, negative = inhibition) at 10uM” value is listed as -5.44%.

In the case of `COc1ccc(C(=O)Nc2ccc(S(=O)(=O)Nc3nccnc3OC)cc2)cc1`, the “hERG current change (%, negative = inhibition) at 10uM” value is on record as 8.73%.

In the case of `CC(C)C(NS(=O)(=O)c1cccc2nsnc12)C(=O)Nc1nccs1` (centres unmarked), the “hERG current change (%, negative = inhibition) at 10uM” value is -42.2%.

In the case of `O=C(COC(=O)c1ccccn1)Nc1cccnc1Cl`, the “hERG current change (%, negative = inhibition) at 10uM” value is given as -5.76%.

Regarding `CCc1cc(=O)n2[nH]c(-c3ccccc3)c(-c3ccccc3)c2n1`, the “hERG current change (%, negative = inhibition) at 10uM” value was 10.3%.

Turning to `CC(=O)c1cccc(CN2CCCC(C(=O)Nc3ccc(-c4ccco4)cc3)C2)c1` (centres unmarked), the “hERG current change (%, negative = inhibition) at 10uM” value is on record as -6.44%.

For `CCCOc1ccc(NC(=O)CC2Nc3ccccc3NC2=O)cc1` (centres unmarked), the “hERG current change (%, negative = inhibition) at 10uM” value worked out at 38.1%.

Consider `O=C(CSc1nnc(C2CC2)n1Cc1ccccc1)c1cc2ccccc2o1`, for which the “hERG current change (%, negative = inhibition) at 10uM” value was -5.84%.

`O=[N+]([O-])c1cc2c(cc1/C=N/NS(=O)(=O)c1ccc(Br)cc1)OCO2`: the “hERG current change (%, negative = inhibition) at 10uM” value is reported as 8.13%.

As for `COC(=O)c1sccc1NC(=O)c1cc2c(s1)CCCC2`, the “hERG current change (%, negative = inhibition) at 10uM” value is 2.12%.

As for `C=CCN1C(=O)c2ccc(C(=O)N(C)CC(=O)Nc3ccc(Br)cc3C)cc2C1=O`, the “hERG current change (%, negative = inhibition) at 10uM” value was -52.5%.

As for `CC(=O)c1ccc(NS(=O)(=O)c2cc(-c3cnc(C4CC4)o3)ccc2C)cc1`, the “hERG current change (%, negative = inhibition) at 10uM” value turned out to be 19.1%.

As for `CCn1c(=O)c(C(=O)NCCc2ccc(OC)c(OC)c2)c(O)c2ccccc21`, the “hERG current change (%, negative = inhibition) at 10uM” value is -6.58%.

Consider `CC12CCC(C(=O)N/N=C/c3ccc(O)cc3)(OC1=O)C2(C)C` (centres unmarked), for which the “hERG current change (%, negative = inhibition) at 10uM” value came to 9.27%.

Turning to `CCc1cc2cccc(C)c2nc1SCC(=O)Nc1cc(C)on1`, the “hERG current change (%, negative = inhibition) at 10uM” value is on record as 20.8%.

Turning to `O=C(NC(=S)Nc1ccc2c(c1)OCCO2)c1ccco1`, the “hERG current change (%, negative = inhibition) at 10uM” value is listed as 14.9%.

On to `Nc1nc(Cl)cc(=O)n1Cc1ccc(Cl)cc1`, for which the “hERG current change (%, negative = inhibition) at 10uM” value is 12.2%.

Take `CC(=O)Nc1c(O)nc(SCc2ccc(Cl)cc2)[nH]c1=O`: the “hERG current change (%, negative = inhibition) at 10uM” value came out at 6.95%.

On to `O=C(Nc1c(O)c2ccccc2[nH]c1=O)c1ccco1`, for which the “hERG current change (%, negative = inhibition) at 10uM” value came out at 4.3%.

In the case of `O=C(CN1CCOCC1)NNC(=S)Nc1ccc(Cl)cc1`, the “hERG current change (%, negative = inhibition) at 10uM” value is reported as 14.1%.

Consider `O=C(NNC(=O)c1ccc2ccccc2c1)Nc1ccc(F)cc1`, for which the “hERG current change (%, negative = inhibition) at 10uM” value is reported as 12.9%.

Regarding `O=C(CCS(=O)(=O)c1ccc2c(c1)NC(=O)CS2)NCCc1ccc(Cl)cc1`, the “hERG current change (%, negative = inhibition) at 10uM” value is reported as 9.73%.

As to `CC(C)C(NC(=O)c1ccccc1Cl)C(=O)OCc1nc2scc(-c3ccccc3Cl)c2c(=O)[nH]1` (centres unmarked), the “hERG current change (%, negative = inhibition) at 10uM” value is -11.6%.

Regarding `CCCNC(=O)Nc1ccc2c(c1)N(C)C(=O)c1ccccc1S2`, the “hERG current change (%, negative = inhibition) at 10uM” value is -15.7%.

For `COCCC(=O)Nc1ccc2c(c1)CN(C(=O)CCSC)CC2`, the “hERG current change (%, negative = inhibition) at 10uM” value amounted to 2.87%.

As for `O=C(N/C(=C\c1cccs1)C(=O)N1CCOCC1)c1cccs1`, the “hERG current change (%, negative = inhibition) at 10uM” value is on record as -9.07%.

For the molecule `Cc1occc1C(=O)N/N=C/c1ccc(-c2ccccc2)cc1`, the “hERG current change (%, negative = inhibition) at 10uM” value is reported as 6.3%.

With `CCOC(=O)c1c(NC(=O)C2C3CCC(O3)C2C(=O)O)sc2c1CCC(CC)C2` (centres unmarked), the “hERG current change (%, negative = inhibition) at 10uM” value is -21.1%.

As to `CCOC(=O)N1CCN(c2cc(=O)n(Cc3ccc(F)cc3)c(=O)[nH]2)CC1`, the “hERG current change (%, negative = inhibition) at 10uM” value is recorded as -10.1%.

On to `COc1ccc(NC2CCCN(C(=O)c3cccs3)C2)cc1` (centres unmarked), for which the “hERG current change (%, negative = inhibition) at 10uM” value is recorded as 6.1%.

With `Cn1nc(C(=O)Nc2ccc(S(=O)(=O)N3CCOCC3)cc2)c2ccccc2c1=O`, the “hERG current change (%, negative = inhibition) at 10uM” value is listed as 2.36%.

Take `N#Cc1nc(-c2ccc(Cl)cc2)oc1NCC1CCCO1` (centres unmarked): the “hERG current change (%, negative = inhibition) at 10uM” value is 31.3%.

Source of the values: paper PMC4336329 (PLoS ONE, 2015).
